This is one part of the list.
Legend:
Experiment in all cases: glycan array binding signal (z-score within array); higher = stronger binding
Conditions in all cases: glycan notation: IUPAC condensed, linker removed
[1] = biological target: Neu5Ac(a2-6)GalNAc(b1-4)GlcNAc
How it was run: (§1)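 The binding signal is a Z-score computed within each array. Data were drawn from 3228 arrays in the Consortium for Functional Glycomics database, restricted to those with a known protein sequence. Scores were averaged over arrays of the same protein sequence at different concentrations or buffers, and over linkers, and negative values can be taken as non-binding.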

[2] = biological target: Neu5Ac(a2-6)GalNAc(b1-4)GlcNAc6S
How it was run: as §1

[3] = biological target: Neu5Ac(a2-6)GlcNAc(b1-4)GlcNAc
How it was run: as §1

[4] = biological target: Neu5Ac(a2-6)GlcNAc(b1-4)GlcNAc(b1-4)GlcNAc
How it was run: as §1

Neu5Ac(a2-8)Neu5Ac = biological target: Neu5Ac(a2-8)Neu5Ac
How it was run: as §1

[5] = biological target: Neu5Ac(a2-8)Neu5Ac(a2-3)Gal(b1-3)GalNAc(b1-4)[Neu5Ac(a2-3)]Gal(b1-4)Glc
How it was run: as §1

[6] = biological target: Neu5Ac(a2-8)Neu5Ac(a2-3)Gal(b1-3)GalNAc(b1-4)[Neu5Ac(a2-8)Neu5Ac(a2-3)]Gal(b1-4)Glc
How it was run: as §1

[7] = biological target: Neu5Ac(a2-8)Neu5Ac(a2-3)Gal(b1-4)Glc
How it was run: as §1

[8] = biological target: Neu5Ac(a2-8)Neu5Ac(a2-3)Gal(b1-4)GlcNAc
How it was run: as §1

[9] = biological target: Neu5Ac(a2-8)Neu5Ac(a2-3)[Gal(b1-3)GalNAc(b1-4)]Gal(b1-4)Glc
How it was run: as §1

[10] = biological target: Neu5Ac(a2-8)Neu5Ac(a2-3)[GalNAc(b1-4)]Gal(b1-4)Glc
How it was run: as §1

[11] = biological target: Neu5Ac(a2-8)Neu5Ac(a2-8)Neu5Ac
How it was run: as §1

[12] = biological target: Neu5Ac(a2-8)Neu5Ac(a2-8)Neu5Ac(a2-3)Gal(b1-4)Glc
How it was run: as §1

[13] = biological target: Neu5Ac(a2-8)Neu5Ac(a2-8)Neu5Ac(a2-3)[Gal(b1-3)GalNAc(b1-4)]Gal(b1-4)Glc
How it was run: as §1

[14] = biological target: Neu5Ac(a2-8)Neu5Ac(a2-8)Neu5Ac(a2-3)[GalNAc(b1-4)]Gal(b1-4)Glc
How it was run: as §1

[15] = biological target: Neu5Ac(a2-8)Neu5Ac(a2-8)Neu5Ac(a2-8)Neu5Ac(a2-3)[GalNAc(b1-4)]Gal(b1-4)Glc
How it was run: as §1

[16] = biological target: Neu5Ac(a2-8)Neu5Gc(a2-3)Gal(b1-4)GlcNAc
How it was run: as §1

Neu5Ac(b1-6)GalNAc = biological target: Neu5Ac(b1-6)GalNAc
How it was run: as §1

[17] = biological target: Neu5Ac(b2-6)Gal(b1-4)GlcNAc
How it was run: as §1

Neu5Ac(b2-6)GalNAc = biological target: Neu5Ac(b2-6)GalNAc
How it was run: as §1

[18] = biological target: Neu5Ac9Ac(a2-3)Gal(b1-4)GlcNAc
How it was run: as §1

[19] = biological target: Neu5Ac9Ac(a2-6)Gal(b1-4)GlcNAc
How it was run: as §1

[20] = biological target: Neu5Gc(a2-3)Gal(b1-3)GlcNAc
How it was run: as §1

[21] = biological target: Neu5Gc(a2-3)Gal(b1-3)[Fuc(a1-4)]GlcNAc
How it was run: as §1

Neu5Gc(a2-3)Gal(b1-4)Glc = biological target: Neu5Gc(a2-3)Gal(b1-4)Glc
How it was run: as §1

[22] = biological target: Neu5Gc(a2-3)Gal(b1-4)GlcNAc
How it was run: as §1

[23] = biological target: Neu5Gc(a2-3)Gal(b1-4)GlcNAc(b1-3)Gal(b1-4)GlcNAc(b1-2)Man(a1-3)[Neu5Gc(a2-3)Gal(b1-4)GlcNAc(b1-3)Gal(b1-4)GlcNAc(b1-2)Man(a1-6)]Man(b1-4)GlcNAc(b1-4)GlcNAc
How it was run: as §1

[24] = biological target: Neu5Gc(a2-3)Gal(b1-4)[Fuc(a1-3)]GlcNAc
How it was run: as §1

[25] = biological target: Neu5Gc(a2-6)Gal(b1-4)GlcNAc
How it was run: as §1

Neu5Gc(a2-6)GalNAc = biological target: Neu5Gc(a2-6)GalNAc
How it was run: as §1

[26] = biological target: Neu5Gc(a2-8)Neu5Ac(a2-3)Gal(b1-4)GlcNAc
How it was run: as §1

[27] = biological target: Neu5Gc(a2-8)Neu5Gc(a2-3)Gal(b1-4)GlcNAc
How it was run: as §1

[28] = biological target: Neu5Gc(a2-8)Neu5Gc(a2-3)Gal(b1-4)GlcNAc(b1-3)Gal(b1-4)GlcNAc
How it was run: as §1

[29] = biological target: Neu5Gc(a2-8)Neu5Gc(a2-6)Gal(b1-4)GlcNAc
How it was run: as §1

[30] = biological target: Neu5Gc(b2-6)Gal(b1-4)GlcNAc
How it was run: as §1

B1: Gal 8 (Homo sapiens) (protein)
chain: MLSLNNLQNIIYNPVIPYVGTIPDQLDPGTLIVICGHVPSDADRFQVDLQNGSSVKPRADVAFHFNPRFKRAGCIVCNTLINEKWGREEITYDTPFKREKSFEIVIMVLKDKFQVAVNGKHTLLYGHRIGPEKIDTLGIYGKVNIHSIGFSFSSDLQSTQASSLELTEISRENVPKSGTPQLQTVSPSWDLQGHGSETFCSVLWTRVFLEIAFCRPIGLTVASFQSLPFAARLNTPMGPGRTVVVKGEVNANAKSFNVDLLAGKSKDIALHLNPRLNIKAFVRNSFLQESWGEEERNITSFPFSPGMYFEMIIYCDVREFKVAVNGVHSLEYKHRFKELSSIDTLEINGDIHLLEVRSW
glycan array binding signal (z-score) [1]: -0.398
glycan array binding signal (z-score) [2]: -0.356
glycan array binding signal (z-score) [3]: -0.357
glycan array binding signal (z-score) [4]: -0.356
glycan array binding signal (z-score) (Neu5Ac(a2-8)Neu5Ac): -0.355
glycan array binding signal (z-score) [5]: 0.65
glycan array binding signal (z-score) [6]: -0.356
glycan array binding signal (z-score) [7]: 1.63
glycan array binding signal (z-score) [8]: -0.262
glycan array binding signal (z-score) [9]: -0.355
glycan array binding signal (z-score) [10]: -0.398
glycan array binding signal (z-score) [11]: -0.396
glycan array binding signal (z-score) [12]: 0.367
glycan array binding signal (z-score) [13]: -0.355
glycan array binding signal (z-score) [14]: -0.399
glycan array binding signal (z-score) [15]: -0.145
glycan array binding signal (z-score) [16]: -0.261
glycan array binding signal (z-score) (Neu5Ac(b1-6)GalNAc): -0.75
glycan array binding signal (z-score) [17]: -0.379
glycan array binding signal (z-score) (Neu5Ac(b2-6)GalNAc): -0.369
glycan array binding signal (z-score) [18]: -0.35
glycan array binding signal (z-score) [19]: -0.402
glycan array binding signal (z-score) [20]: 0.648
glycan array binding signal (z-score) [21]: -0.15
glycan array binding signal (z-score) (Neu5Gc(a2-3)Gal(b1-4)Glc): 0.727
glycan array binding signal (z-score) [22]: -0.037
glycan array binding signal (z-score) [23]: -0.198
glycan array binding signal (z-score) [24]: -0.269
glycan array binding signal (z-score) [25]: -0.399
glycan array binding signal (z-score) (Neu5Gc(a2-6)GalNAc): -0.4
glycan array binding signal (z-score) [26]: -0.295
glycan array binding signal (z-score) [27]: -0.284
glycan array binding signal (z-score) [28]: -0.233
glycan array binding signal (z-score) [29]: -0.355
glycan array binding signal (z-score) [30]: -0.364
